# Source: PMC4336329 (PLoS ONE, 2015)
# The whole screen tested about 310,000 compounds, of which about 14,000 (4.5%) showed an effect of 50% or more. The effect is printed as a negative number. The list shows a part of the results.
# Biological target: human ether-à-go-go-related gene (hERG) potassium channel (human, UniProt Q12809)
# Experiment: primary screen, population patch clamp on CHO cells stably expressing hERG
# 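Note: peak tail current of the secondary pulse compared with the same well before compound.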
# Chain of human ether-à-go-go-related gene (hERG) potassium channel (Q12809 whole entry, looked up): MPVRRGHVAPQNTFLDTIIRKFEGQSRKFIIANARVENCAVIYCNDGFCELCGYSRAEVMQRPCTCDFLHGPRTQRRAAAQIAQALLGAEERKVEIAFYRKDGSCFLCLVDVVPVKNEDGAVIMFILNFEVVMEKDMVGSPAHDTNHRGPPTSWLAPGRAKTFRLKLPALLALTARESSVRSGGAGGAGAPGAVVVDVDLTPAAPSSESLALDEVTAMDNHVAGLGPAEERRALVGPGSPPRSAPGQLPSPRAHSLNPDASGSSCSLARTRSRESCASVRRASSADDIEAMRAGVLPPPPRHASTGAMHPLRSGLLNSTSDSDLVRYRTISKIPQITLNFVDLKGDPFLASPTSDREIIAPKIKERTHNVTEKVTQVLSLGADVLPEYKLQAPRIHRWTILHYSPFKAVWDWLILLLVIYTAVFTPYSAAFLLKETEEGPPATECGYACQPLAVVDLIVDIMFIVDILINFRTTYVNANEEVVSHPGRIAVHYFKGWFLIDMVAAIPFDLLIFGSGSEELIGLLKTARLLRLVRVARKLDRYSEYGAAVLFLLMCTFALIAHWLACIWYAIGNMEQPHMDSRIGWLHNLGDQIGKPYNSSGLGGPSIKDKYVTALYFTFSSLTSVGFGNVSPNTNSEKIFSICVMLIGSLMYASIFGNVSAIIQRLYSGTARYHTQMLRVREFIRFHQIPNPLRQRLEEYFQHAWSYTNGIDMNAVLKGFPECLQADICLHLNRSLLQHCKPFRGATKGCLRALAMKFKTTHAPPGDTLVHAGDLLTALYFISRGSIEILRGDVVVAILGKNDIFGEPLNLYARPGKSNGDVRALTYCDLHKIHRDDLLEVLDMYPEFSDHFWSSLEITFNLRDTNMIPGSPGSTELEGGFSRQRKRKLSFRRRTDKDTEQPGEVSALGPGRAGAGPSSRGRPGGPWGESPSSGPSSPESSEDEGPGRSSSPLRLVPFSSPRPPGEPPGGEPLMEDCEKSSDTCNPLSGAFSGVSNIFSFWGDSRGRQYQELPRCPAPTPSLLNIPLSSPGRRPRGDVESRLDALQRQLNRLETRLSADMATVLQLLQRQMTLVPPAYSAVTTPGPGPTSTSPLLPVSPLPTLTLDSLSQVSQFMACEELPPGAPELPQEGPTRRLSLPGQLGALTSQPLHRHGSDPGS
row,Compound,"hERG current change (%, negative = inhibition) at 10uM [%]"
1,Cc1ccc(S(=O)(=O)N(C)C)cc1NC(=O)C(C)OC(=O)/C=C/c1cccs1 (stereo not shown),-42.2
2,O=C(O)C1CCCN1S(=O)(=O)c1ccc(Br)cc1 (stereo not shown),12.9
3,CN(C)/C=C/C(=O)c1ccc(Oc2ccccc2)cc1,0.618
4,CCOc1cccc(NC(=O)/C(C#N)=C\c2cccnc2)c1,-5.73
5,Cc1ccc(C(=O)OCC(=O)Nc2cc(S(C)(=O)=O)ccc2Cl)cc1S(=O)(=O)N1CCCCC1,-26.9
6,COCCc1ncc(CN2CCC(C(=O)Nc3cccc(-c4cscn4)c3)CC2)cn1,-13.7
7,O=C(NCC(=O)N(c1cccnc1)C(C(=O)NCc1ccco1)c1ccccc1)c1ccco1 (stereo not shown),5.37
8,CC(=O)Nc1nn(C)c2nc(C)cc(C)c12,-4.02
9,CN1C(=O)CSc2ccc(NC(=O)NCCC3=CCCCC3)cc21,-4.93
10,CN(C)CCCNC(=O)C(=O)NCC1CCCO1 (stereo not shown),8.92
11,COc1ccc(CCOC(=O)CNC(=O)c2ccc(Cl)cc2Cl)cc1,7.08
12,Cc1ccccc1C(=O)Nc1nnc(CC(=O)N/N=C/c2ccco2)s1,15.8
13,CCOC(=O)CC(=O)CSc1ncnc2c1oc1ccccc12,5.2
14,CC(=O)NC(Cc1ccc(C)cc1)C(=O)NC1CCN(c2ncccc2[N+](=O)[O-])CC1 (stereo not shown),7.92
15,COc1ccc(N2CCN(C(=O)C(=O)c3c[nH]c4ccccc34)CC2)cc1,21.6
16,C=CCSc1nnc(NC(=O)c2nc(SCC)ncc2Cl)s1,-19.5
17,O=C(CC1NC2CCCCC2NC1=O)Nc1cccc(C(F)(F)F)c1 (stereo not shown),-3.61
18,O=C(c1cccs1)N1C2CCC1CC(O)(c1cccnc1)C2 (stereo not shown),-7.75
19,COc1ccccc1-c1cc(C(=O)N2CCCc3ccccc32)no1,-2.27
20,CC1CCCC(C)N1C(=O)CSc1nnc(NC(=O)c2cccs2)s1 (stereo not shown),12
21,COc1cc(Cl)c(C)cc1NC(=O)COc1ccccc1[N+](=O)[O-],-5.53
22,O=S(=O)(Nc1nc2ccc(S(=O)(=O)N3CCCC3)cc2s1)c1ccc(F)cc1,-2.68
23,CC(C)C(=O)Nc1cccc(NC(=S)NC(=O)c2cccs2)c1,-20.9
24,Cc1ccc(N2CC(C(=O)Nc3nc4ccc(S(C)(=O)=O)cc4s3)CC2=O)cc1C (stereo not shown),-4.67
25,Cc1nc(C(=O)NCC(=O)c2ccccc2)c(C(F)(F)F)o1,9.34
26,COc1ccc(OC)c(/C=N/NC(=O)c2ccc[n+](CC(=O)c3ccccc3)c2)c1,15.3
27,Cc1ccc(C)c(NS(=O)(=O)c2ccc3c(c2)NC(=O)CCS3)c1,-15
28,Cc1ccc(S(=O)(=O)c2cn(C)c3cc(N4CCN(C)CC4)c(F)cc3c2=O)c(C)c1,-9.51

row,Compound,"hERG current change (%, negative = inhibition) at 10uM [%]"
1,CCCCc1nnc(NC(=O)C2CC(=O)N(c3ccc(C)cc3)C2)s1 (stereo not shown),-1.26
2,O=C(CNC(=O)c1ccco1)NCC(=O)OCc1cccc(Cl)c1,-13
3,Cc1cccc(C)c1NC(=O)Cc1cccs1,8.03
4,O=C(Cc1cnn(-c2ccccc2)c1)c1ccc(O)c(O)c1O,-2.43
5,Cc1ccc(C(=O)Nc2ccccc2C(=O)N2CCN(c3ccccc3)CC2)cc1,1.79
6,CN(CC(=O)NCC1CCCCC1)CC(=O)Nc1ccc(F)cc1,-17.3
7,COc1ccc(OC)c(S(=O)(=O)NCc2cn3cccc(C)c3n2)c1,19.5
8,O=C(CSCc1ccc([N+](=O)[O-])cc1)NC1CCCCCC1,-50.8
9,Clc1ccc2nc(CSc3nncn3-c3ccccc3)cn2c1,-5.18
10,CC(=O)N1C(=O)/C(=C2\SC(=S)N(NC(=O)c3ccc(O)cc3)C2=O)c2ccccc21,9.51
11,CCc1ccc(NS(=O)(=O)c2cc3c4c(c2)CCN4C(=O)CC3)cc1,-8.2
12,CC(C)COP(=O)(c1ccc(N(C)C)cc1)C(O)c1ccccc1 (stereo not shown),12.8
13,O=C(/C=C/c1ccc(F)cc1)NCCC1=CCCCC1,-24.2
14,CC(c1ccco1)N(C(=O)c1ccccc1NS(=O)(=O)c1cccc([N+](=O)[O-])c1)c1ccccn1.Cl (stereo not shown),-7.23
15,Cc1[nH]c2ccccc2c1/C=N/NC(=O)C1CC1(c1ccccc1)c1ccccc1 (stereo not shown),11.7
16,COc1ccccc1OCCC(=O)NCc1ccc2c(c1)OCO2,-7.18
17,Cl.Oc1cccc(C(O)CNCc2ccc(OCc3ccc(Cl)cc3Cl)cc2)c1 (stereo not shown),7.89
18,CCN(CC)C(=O)c1ccc(NC(=O)c2cccc(F)c2)cc1,-8.83
19,COc1cccc(N2CCN(CC(=O)Nc3ccc(SC(F)F)cc3)CC2)c1,-65.5
20,COc1ccc(S(=O)(=O)N(C)CC(=O)NCc2ccc3c(c2)OCO3)cc1,-8.31
21,CC(C)c1ccc(Nc2nc(Cl)nc(NCCO)n2)cc1,-0.646
22,CCOc1ccccc1C1C(C#N)=C(N)Oc2cc(C)n(Cc3ccccn3)c(=O)c21 (stereo not shown),-5.58
23,c1ccc(Cn2nc(-c3ccccc3)nc2-c2ccccc2)cc1,-2.5
24,CCCOC(c1ccccc1)(c1ccccc1)C(Oc1nc(C)cc(C)n1)C(=O)O (stereo not shown),21.5
25,CC(Oc1ccccc1)C(=O)N/N=C/c1ccccn1 (stereo not shown),2.08
26,N#CCCn1cc(C(CC(=O)c2ccccc2)C(=O)O)c2ccccc21 (stereo not shown),4.55
27,COc1ccc2cc(C#N)c(N3CCN(Cc4nnnn4CCC(C)C)CC3)nc2c1,-0.299
